# Patent US20150023989A1, “NEW ANTIBODY DRUG CONJUGATES (ADCS) AND THE USE THEREOF” (SEATTLE GENETICS, INC., priority 2011, published 2015)
# B1: Example 1: immunoconjugate; "Coupling here was carried out using 30 mg of M048-D01-hIgG1" (cysteine coupling) (conjugate)
# heavy: QVELLESGGGLVQPGGSLRLSCAASGFTFSSYAMSWVRQAPGKGLEWVSAISGSGTSTYYADSVKGRFTISRDNSKNTLYLQMNSLRAEDTAVYYCARVRYNWNHGDWFDPWGQGTLVTVSS[no letters for human IgG1 constant region]
# light: QSVLTQPPSASGTPGQRVTISCSGSSSNIGNNYVSWYQQLPGTAPKLLIYENYNRPAGVPDRFSGSKSGTSASLAISGLRSEDEADYYCSSWDDSLNYWVFGGGTKLTVLGQPKAAPSVTLFPPSSEELQANKATLVCLISDFYPGAVTVAWKADSSPVKAGVETTTPSKQSNNKYAASSYLSLTPEQWKSHRSYSCQVTHEGSTVEKTVAPTECS
# What was measured:
# [1] = tested on: MDA-MB-231 human breast cancer cells; experiment: Cytotoxic effect of the FGFR2 ADCs (Cell Titer Glow viability assay); format: cell-based; details: read-out: MDA-MB-231, IC50, 72 hr, 72 hr incubation, growth inhibition vs day 0, cell line does not express FGFR2 at the cell surface
# Procedure: (§1) To determine the amounts of FGFR2 available for the antibody on the cell surface, the cell binding of the FGFR2 antibody on different tumour cell lines was analysed in flow cytometry. The cell lines below were used for the experiments. The information on mutations and copy number of the FGFR2 comes from the Sanger Center Genome Project: • SNU-16 human stomach carcinoma cells, FGFR2 gene amplification (copy number 14; ATCC-CRL-5974, RPMI 1640 (Biochrom FG1215)+10% FCS • KatoIII human stomach carcinoma cells, FGFR2 gene amplification (copy number 14 ATCC-TCP-1008; Iscove's (Biochrom FG0465)+20% FCS • SUM52-PE human breast cancer cells, FGFR2 gene amplification (copy number 14; Asterand Lot No.: 28062A1-6004; Ham's F12 (Biochrom FG0815)+5% FCS+10 mM Hepes buffer+1 μg/ml hydrocortisone+5 μg/ml insulin • MFM-223 human breast cancer cells, FGFR2 gene amplification (copy number 14; ECACC-98050130, MEM Earle (Biochrom F0315)+10% FCS+2 mM glutamine • NCI-H716 human colorectal carcinoma cells, FGFR2 gene amplification (copy number: 8; ATCC-CCL-251; RPMI 1640 (Biochrom FG1215)+10% FCS) • MDA-MB-231 human breast cancer cells (no FGFR2 gene amplification, copy number 3; ATCC-HTB-26, DMEM/HAM's F12 (Biochrom FG4815)+10% FCS
# (§2) The cytotoxic effect of the FGFR2 ADCs was determined on various cell lines with different expression quantities of FGFR2, as follows:
# (§3) The cells were cultured according to a standard method, using the growth media indicated under C-1. For the implementation, the cells were detached with a solution of trypsin (0.05%) and EDTA (0.02%) in PBS (Biochrom AG #L2143), pelletized, resuspended in culture medium, counted, and seeded into a 96-well culture plate with a white base (Costar #3610) (at 75 μl/well, following cell counts per well: SNU-16: 3000; MFM-223: 7000; MDA-MB-231: 4000; SUM52-PE: 3000; NCI-H716: 3000; KatoIII: 3000) and incubated in an incubator at 37° C. under 5% carbon dioxide. After 24 hours, the antibody-drug conjugates in 25 μl of culture medium (four-fold concentration) were applied to the cells, giving final antibody-drug conjugate concentrations of 3×10^−7 M to 3×10^−11 M on the cells (triplicates). The cells were then incubated in an incubator at 37° C. and 5% carbon dioxide. In a parallel plate, the cell vitality at the beginning of drug treatment (day 0) was determined using the Cell Titer Glow Luminescent Cell Viability Assay (Promega #G7573 and #G7571). For this, 100 μl of the substrate were added per cell batch, and the plates were then covered with aluminium foil, shaken at 180 rpm with a plate shaker for 2 minutes, left to stand on the laboratory bench for 8 minutes, and then measured using a luminometer (Victor X2, Perkin Elmer). The substrate detects the ATP content in the living cells, producing a luminescence signal whose level is directly proportional to the vitality of the cells. After 72 hours of incubation with the antibody-drug conjugates, the vitality was determined in these cells as well, using the Cell Titer Glow Luminescent Cell Viability Assay as described above. From the data measured, the IC50 of growth inhibition was calculated in comparison to that on day 0, using the laboratory software MTS (developed by Schering AG and Bayer Business Services 1999-2009) on the basis of a 4-parameter adaptation.
# [2] = tested on: MFM-223 human breast cancer cells; experiment: as above; format: cell-based
# Procedure: as §1, §2, §3
# [3] = tested on: SNU-16 human stomach carcinoma cells; experiment: as above; format: cell-based
# Procedure: as §1, §2, §3
# [4] = tested on: SNU-16 stomach carcinoma cells; experiment: SNU-16 xenograft model in the mouse; format: in vivo; details: day 31; for T/C: female NODscid mice
# Procedure: Human tumour cells which express FGFR2 were inoculated subcutaneously into the flank of immunosuppressed mice, such as nude mice or SCID mice. 1-10 million cells are detached from the cell culture, centrifuged and resuspended with 100 μl of medium, 50% medium/50% Matrigel or 100% Matrigel. The cell suspension was injected beneath the skin of the mouse.
# Within a few days, a tumour grew. Treatment began no earlier than at a tumour size of 20-25 mm^2 after establishment of a tumour.
# Treatment with conjugate took place via the intravenous route into the caudal vein of the mouse. The conjugate was dissolved in PBS and is administered with a volume of 5-10 ml/kg.
# The treatment scheme was governed by the pharmacokinetics of the antibody. As a standard, treatment took place three times following every fourth day or every seventh day. Treatment, however, may also be continued further, or a second cycle with three days of treatment may follow at a later point in time.
# As a standard basis, 8 animals were used per treatment group. This number may be higher if particularly strong fluctuations in tumour growth or after treatment are anticipated. As well as the groups which receive the active substances, one group, as a control group, was treated only with the buffer, in accordance with the same scheme.
# In the course of the experiment, the area of the tumour was measured regularly using a sliding caliper in two dimensions (length/width). The area of the tumour was calculated by means of the formula length× width.
# At the end of the experiment, the tumours were removed and weighed. The ratio of the average tumour weights for the therapy group (T) to the control group (C) was expressed as T/C. If control and treatment groups finished at different times, then the T/C value was calculated using the tumour areas of the last common measurement of all treatment and control groups.
# Two million SNU-16 stomach carcinoma cells were inoculated subcutaneously into the flank of female NODscid mice.
# Intravenous treatment with the conjugates was commenced at an average tumour size of 20-30 mm^2 When the control groups had reached the maximum permissible size, these groups were ended. The experimental groups treated with FGFR2 conjugates were ended when the tumours began to grow again. The activity of the conjugates was determined on day 31, the last point in time at which the vehicle control was still in the experiment. All of the FGFR2 conjugates tested inhibited tumour growth in a dose-dependent manner. At a dose of 5 mg/kg, Example 1 achieved a T/C of 0.08, Example 3 a T/C of 0.06 and Example 26 a T/C of 0.10. […] At a dose of 2.5 mg/kg, Example 26 achieved a T/C of 0.14. At this dose, Example 26 led to partial regression in 40% of the animals. […]
molecule,measurement,setting,value
B1,IC50,[1],> 300 nM
same,IC50,[1]; listed as Working Example 1,≥ 300 nM
same,"IC50 of proliferation, MFM-223 (concentration range in words)",[2],subnanomolar
same,IC50,"[2]; read-out: MFM-223, IC50, 72 hr, 72 hr incubation, growth inhibition vs day 0, at the drug/mAB ratios indicated",0.0907 nM
same,"IC50 of proliferation, SNU-16 (concentration range in words)",[3],subnanomolar
same,IC50,"[3]; read-out: SNU-16, IC50, 72 hr, 72 hr incubation, growth inhibition vs day 0, at the drug/mAB ratios indicated",0.214 nM
same,partial regression (animals),[4]; 1 mg/kg i.v.,all of the animals treated
same,T/C,[4]; 1 mg/kg i.v.,0.15
same,partial regression of the tumour (animals),[4]; 5 mg/kg i.v.,all of the animals treated
same,T/C,[4]; 5 mg/kg i.v.,0.08

# Read-outs that look alike come from different tables or passages of the source.
